# Test results reported in PubChem BioAssay AID2147 (National Center for Advancing Translational Sciences (NCATS), 2009).
# Among all 230,000 compounds or so, about 3,600 (1.6%) were called active. This list was built around the results that the source calls inconclusive (neither active nor inactive); the mix of calls is not that of the screen. The call rests on the fitted dose curve; in most records, active means well fitted inhibition curve with a large enough effect (not every such curve was filed as active); inconclusive means small, poorly fitted or top-dose-only effect, or another doubt; inactive means no such curve, though single readings can be large or run the other way. Potencies beside an inconclusive call are fits to weak or partial responses and may not hold up.
# Molecular target: Lysine-specific demethylase 4E (Homo sapiens) (UniProt B2RXH2)
# Assay: qHTS Assay for Inhibitors of Human Jumonji Domain Containing 2E (JMJD2E)
# Conditions: JMJD2E catalytic domain, FDH-coupled NADH fluorescence (FDH is formaldehyde dehydrogenase); series mostly up to 57.1 µM
# Further: nearly all actives have a fitted effect of over 50% in size.
# Potency means the concentration at half of the fitted maximal effect; tags describe the fitted curve by direction and shape.
# UniProt B2RXH2, sequence (B2RXH2 whole entry, looked up, the tested form may be a part): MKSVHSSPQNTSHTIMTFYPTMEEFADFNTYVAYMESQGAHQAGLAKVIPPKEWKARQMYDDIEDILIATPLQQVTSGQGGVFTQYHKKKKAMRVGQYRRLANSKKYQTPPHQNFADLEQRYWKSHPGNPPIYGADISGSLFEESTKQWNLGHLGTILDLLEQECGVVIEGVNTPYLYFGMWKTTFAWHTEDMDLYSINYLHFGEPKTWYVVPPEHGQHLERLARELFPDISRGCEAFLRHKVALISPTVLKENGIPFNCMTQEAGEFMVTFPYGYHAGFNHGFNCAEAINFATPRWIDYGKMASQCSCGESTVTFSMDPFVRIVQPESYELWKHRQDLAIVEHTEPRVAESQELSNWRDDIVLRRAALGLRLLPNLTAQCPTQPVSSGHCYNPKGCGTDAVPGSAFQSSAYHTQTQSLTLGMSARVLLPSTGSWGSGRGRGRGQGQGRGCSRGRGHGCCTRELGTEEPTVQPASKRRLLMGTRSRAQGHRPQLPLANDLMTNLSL
row,SMILES,Potency
1,CCOC(=O)c1sc(C)c(C(N)=O)c1NC1=NCCCCC1,"inconclusive: 31.6 µM [inhibitor, single point]"
2,Cc1cc(Nc2ccccc2)n(-c2nc3ccccc3[nH]2)n1,inactive
3,COc1ccc(CN2CCNC(=O)C2CC(=O)NCc2cn3ccc(C)cc3n2)c(OC)c1 (stereo unspecified),"inconclusive: 28.2 µM [inhibitor, partial curve]"
4,CN(C)c1ccc(C(CNS(=O)(=O)c2ccc(F)c(F)c2)c2c[nH]c3ccccc23)cc1 (stereo unspecified),inactive
5,COc1ccc(-n2ncc3c(N4CCN(Cc5ccccc5)CC4)ncnc32)cc1,"inconclusive: 28.2 µM [inhibitor, partial curve]"
6,O=C(Nc1ccc2oc(-c3ccncc3)nc2c1)c1c(F)c(F)c(F)c(F)c1F,"inconclusive: 4.47 µM [inhibitor, single point]"
7,COc1ccc(C2NN=C(c3ccc(C)cc3)S2)cc1OC (stereo unspecified),"inconclusive: 31.6 µM [inhibitor, partial curve]"
8,O=C(O)c1cccc(-c2ccc(/C=N/n3cnc4sc5c(c4c3=O)CCCC5)o2)c1,"inconclusive: 35.5 µM [inhibitor, single point]"
9,CN(Cc1ccccc1)C(=O)COC(=O)/C=C/c1ccco1,inactive
10,Cc1ccc(-n2nc3ccc(NC(=O)C(C)C)cc3n2)cc1,"inconclusive: 25.1 µM [inhibitor, partial curve]"
11,COc1ccc2c(c1)NC(c1cc(Cl)cc(Cl)c1O)c1cccn1-2 (stereo unspecified),"inconclusive: 17.8 µM [inhibitor, partial curve]"
12,Cc1c(NS(=O)(=O)c2ccc(N3CCN(C)CC3)c([N+](=O)[O-])c2)c(=O)n(-c2ccccc2)n1C,inactive
13,CSc1ccc(/C=C/c2ccc3cccc(O)c3n2)cc1,"inconclusive: 39.8 µM [inhibitor, single point]"
14,CCCCCCCc1cc2ccccc2c(=O)o1,inactive
15,CNC(=O)OC(C)CNS(=O)(=O)c1ccc(C)cc1 (stereo unspecified),inactive
16,CCOc1ccc(NC(=S)N(C)C)cc1,inactive
17,CSc1ccc(/C=N/Nc2cccc(C(=O)O)c2)cc1,"inconclusive: 35.5 µM [inhibitor, single point]"
18,C/C(=N\Nc1nc(N)cc(Cl)n1)c1cccc(N)c1,"inconclusive: 25.1 µM [inhibitor, single point]"
19,CCN(CC)S(=O)(=O)c1ccc(N2CCOCC2)c(NC(=O)c2cccc3ccccc23)c1,"inconclusive: 39.8 µM [inhibitor, single point]"
20,CCn1c(-c2cc(OC)c(OC)c(OC)c2)n[nH]c1=S,"inconclusive: 39.8 µM [inhibitor, single point]"
21,Cc1cccc(OCCn2c(-c3ccco3)nc3ccccc32)c1,"inconclusive: 31.6 µM [inhibitor, single point]"
22,Cc1nn(CCCC(=O)Nc2sc3c(c2C#N)CCC3)c(C)c1[N+](=O)[O-],inactive
23,CC(C)COc1ccc(C(=O)OCCN2CCOCC2)cc1,"inconclusive: 28.2 µM [inhibitor, single point]"

row,SMILES,Potency
1,Cc1ccc(N=Nc2c(N)nn3c(N)c(C#N)c(C)nc23)cc1,inactive
2,COc1ccc(-c2nc3ccc(N4CCN(C)CC4)cc3c(=O)[nH]2)cc1,"inconclusive: 14.1 µM [inhibitor, partial curve]"
3,CCCCC(=O)N/N=C/c1ccc(Sc2cccc3cccnc23)o1,inactive
4,O=C(N/N=C/c1ccccn1)c1cc([N+](=O)[O-])cc([N+](=O)[O-])c1,"inconclusive: 39.8 µM [inhibitor, single point]"
5,CNc1c(C(=O)O)ccc2c1C(=O)c1ccccc1C2=O,"inconclusive: 2.51 µM [inhibitor, full curve, poor fit]"
6,COc1ccc2[nH]c3c(=O)n(Cc4ccc(C(=O)NCC5CCCO5)cc4)c(=S)[nH]c3c2c1 (stereo unspecified),"inconclusive: 31.6 µM [inhibitor, partial curve]"
7,COc1ccccc1CN1CCCC(C(=O)N(C)Cc2ccccc2)C1 (stereo unspecified),"inconclusive: 35.5 µM [inhibitor, single point]"
8,Cn1c(SCC(=O)N/N=C/c2ccco2)nc2ccccc21,"inconclusive: 39.8 µM [inhibitor, single point]"
9,O=C(Nc1nc(-c2ccccn2)cs1)c1ccc(S(=O)(=O)N2CCCCC2)cc1,inactive
10,CCOC(=O)c1ccc(NNC(C)=O)c([N+](=O)[O-])c1,"inconclusive: 25.1 µM [inhibitor, single point]"
11,N=C1C(=O)OCC1c1ccccc1NC(=O)Nc1ccccc1 (stereo unspecified),"inconclusive: 39.8 µM [inhibitor, partial curve, poor fit]"
12,CCOC(=O)c1sc(/N=C/c2ccc(O)cc2O)cc1C,"inconclusive: 20 µM [inhibitor, single point]"
13,O=C(CN1CCCC1)N1CCCc2ccccc21,"inconclusive: 25.1 µM [inhibitor, single point]"
14,CCOC(=O)C1CCCN(Cc2ccc(O)c(OC)c2)C1 (stereo unspecified),"inconclusive: 39.8 µM [inhibitor, single point]"
15,O=C(Cn1ccc2ccccc2c1=O)N1CCN(Cc2ccc3c(c2)OCO3)CC1,"inconclusive: 39.8 µM [inhibitor, single point]"
16,CCC(=S)/C=C1\Sc2ccccc2N1CCCS(=O)(=O)O,"inconclusive: 39.8 µM [inhibitor, single point]"
17,O=C(CNCc1ccc(Cl)cc1)NCc1ccco1,"inconclusive: 25.1 µM [inhibitor, single point]"
18,Cc1ccc(S(=O)(=O)NCC(c2ccccc2)N2CCCCC2)cc1 (stereo unspecified),inactive
19,COc1ccc(/C=N/NC(=O)c2ccc(CN3C(=O)c4cccc5cccc3c45)cc2)cc1O,"inconclusive: 31.6 µM [inhibitor, single point]"
20,CCOC(=O)c1c(NC(=O)c2cccs2)sc(C(=O)N(C)C)c1C,inactive
21,CNC(=O)c1cc2cccc(OC)c2oc1=O,inactive
22,C/C(Cl)=C/Cn1c(SC(C)C)nc2c1c(=O)[nH]c(=O)n2C,inactive
23,CSC1=N/C(=C\c2cccnc2)C(=O)N1c1ccccc1,"inconclusive: 22.4 µM [inhibitor, partial curve]"
